# In PubChem BioAssay AID1645887 (National Center for Advancing Translational Sciences (NCATS), 2021):
# Where “and” joins values, the source holds several entries; their conditions need not be identical. Equal values may be shown once. The campaign covered roughly 16,000 compounds. About 40 (0.2%) were called active. Inconclusive means that the source gave no clear call. Such entries were picked first, then a sample of the others. Calls follow the shape of the dose curve; as a rule, active = well fitted activation curve with a large enough effect; inconclusive = small, poorly fitted or top-dose-only effect, or another doubt; inactive = no such curve, though single readings can be large or run the other way. Where the call is inconclusive, the potency comes from a doubtful curve fit. Positions of bridges follow the written chain, without caps; N, C: chain ends. Residues, ends and D or L forms follow the SMILES beside them.
# Target: Rap guanine nucleotide exchange factor 4 (Homo sapiens) (UniProt Q8WZA2)
# Experiment: Validation qHTS for agonist of cAMP-regulated guanine nucleotide exchange factor 4 (EPAC2);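 as to activation: exchange makes BODIPY-GDP fluorescence drop when released from Rap1B; series mostly up to about 150 µM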
# Settings: EPAC2 Rap1B BODIPY-GDP exchange, fluorescence; activation: stronger effect = higher value
# In short: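 Fluorescent exchange assay: 100 nM EPAC2 with 250 nM RAP1B-BODIPY-GDP and 50 uM GDP; compound added, 5 min at room temperature, then read (ex 480/em 540 nm) every 5 min for 30 min. Normalized to 6.5 mM cAMP agonist control.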
# % is scaled to controls: 0 for no effect and ±100 for the full control effect; potency is read from the fitted curve at half-maximal effect; tags tell the direction and shape of the fitted curve.
# UniProt Q8WZA2, sequence (Q8WZA2 whole entry, looked up): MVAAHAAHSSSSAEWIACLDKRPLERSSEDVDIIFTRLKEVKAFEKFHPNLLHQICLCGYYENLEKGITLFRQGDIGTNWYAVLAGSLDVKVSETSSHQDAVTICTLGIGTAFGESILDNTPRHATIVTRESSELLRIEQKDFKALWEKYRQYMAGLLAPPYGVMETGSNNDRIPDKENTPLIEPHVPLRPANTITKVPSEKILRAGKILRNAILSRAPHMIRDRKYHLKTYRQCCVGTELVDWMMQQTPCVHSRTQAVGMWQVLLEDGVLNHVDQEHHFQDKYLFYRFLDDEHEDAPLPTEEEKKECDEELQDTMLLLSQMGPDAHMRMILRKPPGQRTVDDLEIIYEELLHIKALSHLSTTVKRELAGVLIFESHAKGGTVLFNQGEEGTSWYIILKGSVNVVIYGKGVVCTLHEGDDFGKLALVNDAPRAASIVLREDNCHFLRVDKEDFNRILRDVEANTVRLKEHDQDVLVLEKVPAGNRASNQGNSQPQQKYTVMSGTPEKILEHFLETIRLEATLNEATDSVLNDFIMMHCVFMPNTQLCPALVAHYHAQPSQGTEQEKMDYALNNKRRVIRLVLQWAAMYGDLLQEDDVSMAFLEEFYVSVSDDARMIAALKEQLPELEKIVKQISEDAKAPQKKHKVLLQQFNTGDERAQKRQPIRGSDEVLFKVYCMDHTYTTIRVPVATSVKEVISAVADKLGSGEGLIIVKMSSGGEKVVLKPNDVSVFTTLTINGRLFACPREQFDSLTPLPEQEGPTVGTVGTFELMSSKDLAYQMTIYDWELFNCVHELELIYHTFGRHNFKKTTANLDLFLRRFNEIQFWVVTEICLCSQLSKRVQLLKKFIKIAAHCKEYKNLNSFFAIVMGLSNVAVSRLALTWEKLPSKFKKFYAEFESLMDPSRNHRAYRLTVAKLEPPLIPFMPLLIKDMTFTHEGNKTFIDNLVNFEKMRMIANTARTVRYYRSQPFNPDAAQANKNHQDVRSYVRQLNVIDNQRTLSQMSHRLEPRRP
Structure (SMILES),activation,Potency
NCCCNCCCCNC(=O)C(O)NC(=O)CCCCCCN=C(N)N (stereo not drawn),inconclusive: -25.2% [activator],
OCCN(CCO)c1nc(N2CCCCC2)c2nc(N(CCO)CCO)nc(N3CCCCC3)c2n1,,active: 112 µM and active: 100 µM
CN(C)c1ccc(/C=C/c2c3c(nc4ccccc24)CCCC3)cc1,,active: 44.7 µM
C[C@]12CC[C@@H]3c4ccc(OC(=O)c5ccccc5)cc4CC[C@H]3[C@@H]1CC[C@@H]2O,inactive: -2.11%,
Cc1cc(/C=C/c2ccnc3ccccc23)ccc1N(C)C,,active: 50.1 µM
C=CC(C)(C)c1[nH]c2ccccc2c1C1=C(O)C(=O)C(c2c[nH]c3c(CC=C(C)C)cccc23)=C(O)C1=O,,"inconclusive: 12.6 µM [activator, partial curve, poor fit]"
O=C(O)[C@@H]1CSCN1,inconclusive: -30.1% [activator],
O=c1c(-c2cc(F)cc(F)c2)nc2cnc(N3CCOCC3)nc2n1-c1ccccc1,,"inconclusive: 100 µM [activator, partial curve]"
NS(=O)(=O)c1cc2c(cc1Cl)NC(CSCc1ccccc1)=NS2(=O)=O,inconclusive: -32.7% [activator],
O=C(Nc1ccc(C(F)(F)F)cc1[N+](=O)[O-])O[C@H]1[C@H](Cc2ccccc2)NS(=O)(=O)[C@H]2C[C@@H]3C=C[C@]12O3,inactive: -19.6%,
COCCn1c(=O)c(-c2ccccc2)nc2cnc(Nc3ccccc3)nc21,,"inconclusive: 44.7 µM [activator, partial curve, poor fit]"
NCCCC[C@H](NC(=O)[C@@H]1CCCN1C(=O)[C@@H]1CSSC[C@H](N)C(=O)N[C@@H](Cc2ccccc2)C(=O)N[C@@H](Cc2ccccc2)C(=O)N[C@@H](CCC(N)=O)C(=O)N[C@@H](CC(N)=O)C(=O)N1)C(=O)NCC(N)=O (H-CFFQNCPKG-NH2; disulfide 1-6),,"inconclusive: 126 µM [activator, single point]"
CC(=O)OCC(=O)[C@@]1(O)[C@H](C)C[C@H]2[C@@H]3CCC4=CC(=O)C=C[C@]4(C)[C@@]3(F)[C@@H](O)C[C@@]21C,,"inconclusive: 112 µM [activator, partial curve]"
N#CCCn1c(=O)c(-c2cccs2)nc2cnc(N3CCNCC3)nc21,,"inconclusive: 35.5 µM [activator, partial curve, poor fit]"
COCC(=O)N1CCC[C@@]2(CCN(c3ccccn3)C2)C1,inactive: -5.3%,
Cn1c2c(c(=O)c3ccccc31)C[C@@H](O)C(C)(C)O2,inactive: -9.21%,
COC(=O)C1=C(C)NC(C)=C(C(=O)OCCCN2CCC(c3ccccc3)(c3ccccc3)CC2)C1c1cccc([N+](=O)[O-])c1 (stereo not drawn),,"inconclusive: 112 µM [activator, single point] and inconclusive: 28.2 µM [activator, partial curve, poor fit]"
O=C(O)CN(CC(=O)O)CC1=CC2C(=CC1=O)Oc1cc(O)c(CN(CC(=O)O)CC(=O)O)cc1C21OC(=O)c2ccccc21 (stereo not drawn),,"inconclusive: 0.891 µM [activator, full curve, poor fit]"
O=c1[nH]c(=O)c2nc3ccccc3nc2[nH]1,,"inconclusive: 35.5 µM [activator, single point]"
Cc1cc(N(C)C)c(C)cc1/C=C/c1ccnc2ccccc12,,"inconclusive: 112 µM [activator, single point]"
CC(C)[C@@H]1CC[C@@H](C)C[C@H]1O,inconclusive: -31.1% [activator],

Structure (SMILES),activation,Potency
CS(=O)(=O)c1ccc([C@@H](O)[C@@H](CO)NC(=O)C(Cl)Cl)cc1,inconclusive: -31.8% [activator],
COCCn1c(=O)c(-c2cc(F)cc(F)c2)nc2cnc(Nc3cccc(OC)c3)nc21,,"inconclusive: 31.6 µM [activator, partial curve, poor fit]"
CSc1nnc(CNC(=O)c2c(-c3ccccc3)noc2C)n1-c1ccc(F)cc1,inactive: -0.342%,
CNc1cc(NS(=O)(=O)c2ccc(N)cc2)nc(NC)n1,,"inconclusive: 126 µM [activator, single point]"
CCN(CC)CCCC(C)Nc1c2ccc(Cl)cc2nc2ccc(OC)cc12 (stereo not drawn),,"inconclusive: 100 µM [activator, partial curve] and active: 89.1 µM"
CC(C)C[C@@H](CO)N(Cc1ccccc1)S(=O)(=O)N(Cc1ccccc1)[C@@H](CO)CC(C)C,,"inconclusive: 28.2 µM [activator, partial curve, poor fit]"
CN1C(=O)CC(C)(c2ccccc2)C1=O (stereo not drawn),,"inconclusive: 112 µM [activator, partial curve, poor fit]"
CN(C)CCc1c[nH]c2ccc(C[C@H]3COC(=O)N3)cc12,,active: 126 µM
COC(=O)CCC(C)C1CCC2C3CC[C@H]4CC(O)CC[C@@]4(C)C3CC(O)[C@]12C (stereo partly drawn),,"inconclusive: 35.5 µM [activator, partial curve, poor fit]"
Cc1cccc(CN2Cc3cccc4c3[C@H](C=CC4)CC2=O)c1,inactive: -35.8%,
N#Cc1ccc(CN2CC[C@@]3(CCCN(C(=O)c4ccco4)C3)C2)cc1,inactive: -12.3%,
COc1cccc(Nc2ncc3nc(-c4cc(F)cc(F)c4)c(=O)n(C4CC4)c3n2)c1,,"inconclusive: 56.2 µM [activator, partial curve, poor fit]"
CO[C@H]1C[C@H](O[C@H]2[C@H](C)O[C@@H](O[C@@H]3/C(C)=C/C[C@@H]4C[C@@H](C[C@]5(C=C[C@H](C)[C@@H](C6CCCCC6)O5)O4)OC(=O)[C@@H]4C=C(C)[C@@H](O)[C@H]5OC/C(=C\C=C\[C@@H]3C)[C@]54O)C[C@@H]2OC)O[C@@H](C)[C@@H]1O,inconclusive: -40.5% [activator],
COc1cccc(Cn2c(=O)c(-c3cccs3)nc3cnc(N4CCN(C)CC4)nc32)c1,,"inconclusive: 112 µM [activator, partial curve, poor fit]"
COc1ccc(N2C(=O)[C@@H]3C[C@H]2CN3Cc2ccc3nccnc3c2)cc1Cl,inactive: -3.06%,
CCCOc1cc(N)ccc1C(=O)OCCN(CC)CC,inconclusive: -34.2% [activator],
O=c1c(-c2cccs2)nc2cnc(N3CCNCC3)nc2n1-c1ccccc1,,"inconclusive: 50.1 µM [activator, partial curve, poor fit]"
Fc1ccc(C(c2ccc(F)cc2)N2CCN(CC=Cc3ccccc3)CC2)cc1,inconclusive: -37.1% [activator],
CC[n+]1c(/C=C/C=C2/N(C)c3ccccc3C2(C)C)sc2ccccc21,,"inconclusive: 100 µM [activator, partial curve, poor fit]"
OCCN1CCN(CCCN2c3ccccc3Sc3ccc(C(F)(F)F)cc32)CC1,inconclusive: -39.9% [activator],
CC(=O)[C@]1(O)Cc2c(O)c3c(c(O)c2[C@@H](O[C@H]2C[C@H](N)[C@H](O)[C@H](C)O2)C1)C(=O)c1c(O)cccc1C3=O,,active: 100 µM

Structure (SMILES),activation,Potency
COCCN1CCN(C(=O)c2cnn(-c3nccc(-c4ccccc4F)n3)c2-c2ccco2)CC1,,"inconclusive: 100 µM [activator, partial curve]"
COCCOC(=O)C1=C(C)NC(C)=C(C(=O)OC/C=C/c2ccccc2)C1c1cccc([N+](=O)[O-])c1 (stereo not drawn),,"inconclusive: 112 µM [activator, partial curve, poor fit]"
COc1cccc(Nc2ncc3nc(-c4cc(F)cc(F)c4)c(=O)n(CCC#N)c3n2)c1,,"inconclusive: 20 µM [activator, full curve, poor fit]"
Cc1cc2nc3c(=O)[nH]c(=O)nc-3n(CC(O)C(O)C(O)CO)c2cc1C (stereo not drawn),,"inconclusive: 28.2 µM [activator, partial curve, poor fit]"
O=C1c2ccccc2CN2C(=O)c3ccccc3CN12,,"inconclusive: 31.6 µM [activator, partial curve, poor fit]"
Nc1nc2c(nc(Br)n2C2OC3COP(=O)(O)O[C@@H]3C2O)c(=O)[nH]1 (stereo partly drawn),,"inconclusive: 112 µM [activator, partial curve, poor fit]"
CCOC(=O)c1cccc(N)c1,inconclusive: -23.2% [activator],
CC(C)(C)NC(=O)[C@H]1CC[C@H]2[C@@H]3CC=C4C=C(C(=O)O)CC[C@]4(C)[C@H]3CC[C@]12C,inconclusive: -37.7% [activator],
C[C@H](CN1CCCC1)C(=O)c1ccc(C(F)(F)F)cc1,,"inconclusive: 39.8 µM [activator, partial curve, poor fit]"
CC(=O)OCC1=C(C(=O)O)N2C(=O)C(NC(=O)CSc3ccncc3)[C@@H]2SC1 (stereo partly drawn),inactive: -16.2%,
CCCC(=O)Nc1ncnc2c1ncn2[C@@H]1O[C@@H]2COP(=O)(O)O[C@H]2[C@H]1OC(=O)CCC,,"inconclusive: 89.1 µM [activator, partial curve]"
CC(C)C(C)/C=C/C(C)C1CCC2C3=CCC4CC(=O)CC[C@@]4(C)C3CC[C@]21C (stereo partly drawn),inactive: 0.449%,
Nc1nc(SCc2ccc([N+](=O)[O-])cc2)c2ncn([C@@H]3O[C@H](CO)[C@@H](O)[C@H]3O)c2n1,,"inconclusive: 2.24 µM [activator, full curve, poor fit]"
CN(C)c1ncnc2ccc(-c3cccc(C#N)c3)cc12,inactive: -0.384%,
CC(C)NCC(O)COc1ccc(COCCOC(C)C)cc1 (stereo not drawn),,"inconclusive: 50.1 µM [activator, partial curve, poor fit]"
O=c1c(-c2cccs2)nc2cnc(N3CCNCC3)nc2n1Cc1cccs1,,"inconclusive: 79.4 µM [activator, partial curve, poor fit]"
O=C(C[N+]12CCCc3cccc(c31)CCC2)c1ccccc1,inactive: -2.28%,
CCCCCCCCCC[n+]1ccc(/C=C/c2c(C)[nH]c3ccccc23)cc1,,"inconclusive: 31.6 µM [activator, full curve, poor fit]"
Cc1oc(-c2ccccc2NC(=O)c2ccccc2)nc1CNC(=O)C1CC(=O)OC12CCCCC2 (stereo not drawn),inactive: -5.24%,
COc1ccc2cc1Oc1cc3c(cc1OC)CC[N+](C)(C)[C@H]3Cc1ccc(cc1)Oc1c(OC)c(OC)cc3c1[C@@H](C2)[N+](C)(C)CC3,inconclusive: -27.1% [activator],
COc1ccccc1/C=C\C(=O)OC[C@@H]1CCCN2CCCC[C@H]12,inactive: -21.1%,
